# This is one part of the list.
# What was measured:
# Assay in all cases: glycan array binding signal (z-score within array); higher = stronger binding
# Conditions in all cases: glycan notation: IUPAC condensed, linker removed
# Gal6S(b1-3)GlcNAc6S = target: Gal6S(b1-3)GlcNAc6S
# Summary of the method: (§1)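 Glycan array data were curated from 3228 arrays in the Consortium for Functional Glycomics database and kept only where the protein sequence was available. Glycan names were converted to IUPAC-condensed notation, and columns mapping to the same glycan were averaged. The binding signal is a within-array Z-score, averaged across arrays of the same protein sequence at different concentrations or buffers and across linkers. Negative Z-scores can be read as non-binding.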
# Gal6S(b1-4)Glc = target: Gal6S(b1-4)Glc
# Summary of the method: as §1
# Gal6S(b1-4)Glc6S = target: Gal6S(b1-4)Glc6S
# Summary of the method: as §1
# Gal6S(b1-4)GlcNAc = target: Gal6S(b1-4)GlcNAc
# Summary of the method: as §1
# Gal6S(b1-4)GlcNAc6S = target: Gal6S(b1-4)GlcNAc6S
# Summary of the method: as §1
# GalNAc(a1-3)Gal = target: GalNAc(a1-3)Gal
# Summary of the method: as §1
# GalNAc(a1-3)GalNAc = target: GalNAc(a1-3)GalNAc
# Summary of the method: as §1
# [1] = target: GalNAc(a1-3)GalNAc(a1-3)Gal(a1-4)Gal(b1-4)GlcNAc
# Summary of the method: as §1
# [2] = target: GalNAc(a1-3)GalNAc(b1-3)Gal(a1-4)Gal(b1-4)Glc
# Summary of the method: as §1
# [3] = target: GalNAc(a1-3)GalNAc(b1-3)Gal(a1-4)Gal(b1-4)GlcNAc
# Summary of the method: as §1
# GalNAc(b1-3)Gal = target: GalNAc(b1-3)Gal
# Summary of the method: as §1
# [4] = target: GalNAc(b1-3)Gal(a1-4)Gal(b1-4)GlcNAc
# Summary of the method: as §1
# [5] = target: GalNAc(b1-3)Gal(a1-4)Gal(b1-4)GlcNAc(b1-3)Gal(b1-4)Glc
# Summary of the method: as §1
# [6] = target: GalNAc(b1-3)Gal(a1-6)Gal(b1-4)Glc
# Summary of the method: as §1
# GalNAc(b1-3)GalNAc = target: GalNAc(b1-3)GalNAc
# Summary of the method: as §1
# GalNAc(b1-3)GlcNAc = target: GalNAc(b1-3)GlcNAc
# Summary of the method: as §1
# GalNAc(b1-4)Gal(b1-4)Glc = target: GalNAc(b1-4)Gal(b1-4)Glc
# Summary of the method: as §1
# GalNAc(b1-4)GlcNAc = target: GalNAc(b1-4)GlcNAc
# Summary of the method: as §1
# [7] = target: GalNAc(b1-4)GlcNAc(b1-2)Man
# Summary of the method: as §1
# [8] = target: GalNAc(b1-4)GlcNAc(b1-2)Man(a1-3)[GalNAc(b1-4)GlcNAc(b1-2)Man(a1-6)]Man(b1-4)GlcNAc(b1-4)GlcNAc
# Summary of the method: as §1
# [9] = target: GalNAc(b1-4)GlcNAc(b1-3)GalNAc(b1-4)GlcNAc
# Summary of the method: as §1
# GalNAc(b1-4)GlcNAc6S = target: GalNAc(b1-4)GlcNAc6S
# Summary of the method: as §1
# GalNAc(b1-6)GalNAc = target: GalNAc(b1-6)GalNAc
# Summary of the method: as §1
# GalNAc3S(b1-4)GlcNAc = target: GalNAc3S(b1-4)GlcNAc
# Summary of the method: as §1
# GalNAc3S(b1-4)GlcNAc3S = target: GalNAc3S(b1-4)GlcNAc3S
# Summary of the method: as §1
# [10] = target: GalNAc3S(b1-4)[Fuc(a1-3)]GlcNAc
# Summary of the method: as §1
# GalNAc4S6S(b1-4)GlcNAc = target: GalNAc4S6S(b1-4)GlcNAc
# Summary of the method: as §1
# GalNAc6S(b1-4)GlcNAc = target: GalNAc6S(b1-4)GlcNAc
# Summary of the method: as §1
# Glc(a1-4)Glc = target: Glc(a1-4)Glc
# Summary of the method: as §1
# [11] = target: Glc(a1-4)Glc(a1-4)Glc(a1-4)Glc
# Summary of the method: as §1
# Glc(a1-6)Glc(a1-6)Glc = target: Glc(a1-6)Glc(a1-6)Glc
# Summary of the method: as §1
# [12] = target: Glc(a1-6)Glc(a1-6)Glc(a1-6)Glc
# Summary of the method: as §1
# Glc(b1-4)Glc = target: Glc(b1-4)Glc
# Summary of the method: as §1
# Glc(b1-6)Glc = target: Glc(b1-6)Glc
# Summary of the method: as §1
# GlcA(b1-3)Gal = target: GlcA(b1-3)Gal
# Summary of the method: as §1
# GlcA(b1-3)GlcNAc = target: GlcA(b1-3)GlcNAc
# Summary of the method: as §1
# GlcA(b1-6)Gal = target: GlcA(b1-6)Gal
# Summary of the method: as §1
# [13] = target: GlcA3S(b1-3)Gal(b1-4)GlcNAc(b1-2)Man
# Summary of the method: as §1
# [14] = target: GlcA3S(b1-3)Gal(b1-4)GlcNAc(b1-3)Gal(b1-4)Glc
# Summary of the method: as §1
# [15] = target: GlcNAc(a1-3)Gal(b1-4)GlcNAc
# Summary of the method: as §1
# [16] = target: GlcNAc(a1-4)Gal(b1-3)GlcNAc
# Summary of the method: as §1
# [17] = target: GlcNAc(a1-4)Gal(b1-4)GalNAc
# Summary of the method: as §1
# [18] = target: GlcNAc(a1-4)Gal(b1-4)GlcNAc
# Summary of the method: as §1
# [19] = target: GlcNAc(a1-4)Gal(b1-4)GlcNAc(b1-3)Gal(b1-4)Glc
# Summary of the method: as §1
# [20] = target: GlcNAc(a1-4)Gal(b1-4)GlcNAc(b1-3)Gal(b1-4)GlcNAc
# Summary of the method: as §1
# [21] = target: GlcNAc(a1-4)Gal(b1-4)GlcNAc(b1-3)Gal(b1-4)GlcNAc(b1-3)Gal(b1-4)GlcNAc
# Summary of the method: as §1
# [22] = target: GlcNAc(a1-4)Gal(b1-4)GlcNAc(b1-3)Gal(b1-4)[Fuc(a1-3)]GlcNAc(b1-3)Gal(b1-4)[Fuc(a1-3)]GlcNAc
# Summary of the method: as §1
# [23] = target: GlcNAc(a1-6)Gal(b1-4)GlcNAc
# Summary of the method: as §1
# [24] = target: GlcNAc(b1-2)Gal(b1-3)GalNAc
# Summary of the method: as §1
# [25] = target: GlcNAc(b1-2)Man(a1-3)[GlcNAc(b1-2)Man(a1-6)]Man(b1-4)GlcNAc(b1-4)GlcNAc
# Summary of the method: as §1
# [26] = target: GlcNAc(b1-2)Man(a1-3)[GlcNAc(b1-2)Man(a1-6)]Man(b1-4)GlcNAc(b1-4)[Fuc(a1-6)]GlcNAc
# Summary of the method: as §1
# [27] = target: GlcNAc(b1-2)Man(a1-3)[GlcNAc(b1-4)][GlcNAc(b1-2)Man(a1-6)]Man(b1-4)GlcNAc(b1-4)GlcNAc
# Summary of the method: as §1
# [28] = target: GlcNAc(b1-2)Man(a1-3)[GlcNAc(b1-4)][GlcNAc(b1-2)Man(a1-6)]Man(b1-4)GlcNAc(b1-4)[Fuc(a1-6)]GlcNAc
# Summary of the method: as §1
# [29] = target: GlcNAc(b1-2)[GlcNAc(b1-4)]Man(a1-3)[GlcNAc(b1-2)Man(a1-6)]Man(b1-4)GlcNAc(b1-4)GlcNAc
# Summary of the method: as §1
# [30] = target: GlcNAc(b1-2)[GlcNAc(b1-4)]Man(a1-3)[GlcNAc(b1-4)][GlcNAc(b1-2)Man(a1-6)]Man(b1-4)GlcNAc(b1-4)GlcNAc
# Summary of the method: as §1
# [31] = target: GlcNAc(b1-2)[GlcNAc(b1-4)]Man(a1-3)[GlcNAc(b1-4)][GlcNAc(b1-2)[GlcNAc(b1-6)]Man(a1-6)]Man(b1-4)GlcNAc(b1-4)GlcNAc
# Summary of the method: as §1
# [32] = target: GlcNAc(b1-2)[GlcNAc(b1-4)]Man(a1-3)[GlcNAc(b1-4)][GlcNAc(b1-2)[GlcNAc(b1-6)]Man(a1-6)]Man(b1-4)GlcNAc(b1-4)[Fuc(a1-6)]GlcNAc
# Summary of the method: as §1
# [33] = target: GlcNAc(b1-2)[GlcNAc(b1-6)]Man(a1-6)[GlcNAc(b1-2)Man(a1-3)]Man(b1-4)GlcNAc(b1-4)GlcNAc
# Summary of the method: as §1
# [34] = target: GlcNAc(b1-2)[GlcNAc(b1-6)]Man(a1-6)[GlcNAc(b1-2)Man(a1-3)]Man(b1-4)GlcNAc(b1-4)[Fuc(a1-6)]GlcNAc
# Summary of the method: as §1
# [35] = target: GlcNAc(b1-2)[GlcNAc(b1-6)]Man(a1-6)[GlcNAc(b1-2)Man(a1-3)][GlcNAc(b1-4)]Man(b1-4)GlcNAc(b1-4)GlcNAc
# Summary of the method: as §1
binder,measurement,setting,value
"Siglec-F (Mus musculus), Q920G3 (protein) MRWAWLLPLLWAGCLATDGYSLSVTGSVTVQEGLCVFVACQVQYPNSKGPVFGYWFREGANIFSGSPVATNDPQRSVLKEAQGRFYLMGKENSHNCSLDIRDAQKIDTGTYFFRLDGSVKYSFQKSMLSVLVIALTEVPNIQVTSTLVSGNSTKLLCSVPWACEQGTPPIFSWMSSALTSLGHRTTLSSELNLTPRPQDNGTNLTCQVNLPGTGVTVERTQQLSVIYAPQKMTIRVSWGDDTGTKVLQSGASLQIQEGESLSLVCMADSNPPAVLSWERPTQKPFQLSTPAELQLPRAELEDQGKYICQAQNSQGAQTASVSLSIRSLLQLLGPSCSFEGQGLHCSCSSRAWPAPSLRWRLGEGVLEGNSSNGSFTVKSSSAGQWANSSLILSMEFSSNHRLSCEAWSDNRVQRATILLVSGPKVSQAGKSETSRGTVLGAIWGAGLMALLAVCLCLIFFTVKVLRKKSALKVAATKGNHLAKNPASTINSASITSSNIALGYPIQGHLNEPGSQTQKEQPPLATVPDTQKDEPELHYASLSFQGPMPPKPQNTEAMKSVYTEIKIHKC",glycan array binding signal (z-score),Gal6S(b1-3)GlcNAc6S,-0.117
same,glycan array binding signal (z-score),Gal6S(b1-4)Glc,-0.101
same,glycan array binding signal (z-score),Gal6S(b1-4)Glc6S,-0.11
same,glycan array binding signal (z-score),Gal6S(b1-4)GlcNAc,-0.095
same,glycan array binding signal (z-score),Gal6S(b1-4)GlcNAc6S,-0.104
same,glycan array binding signal (z-score),GalNAc(a1-3)Gal,-0.051
same,glycan array binding signal (z-score),GalNAc(a1-3)GalNAc,-0.129
same,glycan array binding signal (z-score),[1],-0.178
same,glycan array binding signal (z-score),[2],-0.124
same,glycan array binding signal (z-score),[3],-0.103
same,glycan array binding signal (z-score),GalNAc(b1-3)Gal,-0.111
same,glycan array binding signal (z-score),[4],-0.004
same,glycan array binding signal (z-score),[5],-0.13
same,glycan array binding signal (z-score),[6],-0.124
same,glycan array binding signal (z-score),GalNAc(b1-3)GalNAc,-0.126
same,glycan array binding signal (z-score),GalNAc(b1-3)GlcNAc,-0.154
same,glycan array binding signal (z-score),GalNAc(b1-4)Gal(b1-4)Glc,-0.099
same,glycan array binding signal (z-score),GalNAc(b1-4)GlcNAc,-0.078
same,glycan array binding signal (z-score),[7],-0.008
same,glycan array binding signal (z-score),[8],-0.024
same,glycan array binding signal (z-score),[9],-0.104
same,glycan array binding signal (z-score),GalNAc(b1-4)GlcNAc6S,-0.135
same,glycan array binding signal (z-score),GalNAc(b1-6)GalNAc,-0.11
same,glycan array binding signal (z-score),GalNAc3S(b1-4)GlcNAc,-0.135
same,glycan array binding signal (z-score),GalNAc3S(b1-4)GlcNAc3S,-0.159
same,glycan array binding signal (z-score),[10],-0.002
same,glycan array binding signal (z-score),GalNAc4S6S(b1-4)GlcNAc,-0.162
same,glycan array binding signal (z-score),GalNAc6S(b1-4)GlcNAc,-0.126
same,glycan array binding signal (z-score),Glc(a1-4)Glc,-0.123
same,glycan array binding signal (z-score),[11],-0.094
same,glycan array binding signal (z-score),Glc(a1-6)Glc(a1-6)Glc,-0.121
same,glycan array binding signal (z-score),[12],-0.102
same,glycan array binding signal (z-score),Glc(b1-4)Glc,-0.125
same,glycan array binding signal (z-score),Glc(b1-6)Glc,-0.12
same,glycan array binding signal (z-score),GlcA(b1-3)Gal,-0.13
same,glycan array binding signal (z-score),GlcA(b1-3)GlcNAc,-0.121
same,glycan array binding signal (z-score),GlcA(b1-6)Gal,-0.117
same,glycan array binding signal (z-score),[13],-0.141
same,glycan array binding signal (z-score),[14],-0.157
same,glycan array binding signal (z-score),[15],-0.11
same,glycan array binding signal (z-score),[16],-0.117
same,glycan array binding signal (z-score),[17],-0.121
same,glycan array binding signal (z-score),[18],-0.125
same,glycan array binding signal (z-score),[19],-0.121
same,glycan array binding signal (z-score),[20],-0.146
same,glycan array binding signal (z-score),[21],-0.103
same,glycan array binding signal (z-score),[22],-0.074
same,glycan array binding signal (z-score),[23],-0.084
same,glycan array binding signal (z-score),[24],-0.111
same,glycan array binding signal (z-score),[25],-0.124
same,glycan array binding signal (z-score),[26],-0.115
same,glycan array binding signal (z-score),[27],-0.115
same,glycan array binding signal (z-score),[28],-0.137
same,glycan array binding signal (z-score),[29],-0.119
same,glycan array binding signal (z-score),[30],-0.088
same,glycan array binding signal (z-score),[31],-0.116
same,glycan array binding signal (z-score),[32],-0.152
same,glycan array binding signal (z-score),[33],-0.097
same,glycan array binding signal (z-score),[34],-0.158
same,glycan array binding signal (z-score),[35],-0.09

# From the supplement of paper PMC8728848
